How the values were obtained:
[1] = tested on: CD16a FcR; conditions: ELISA, words
[2] = target: CD16a-158F FcR (Homo sapiens, UniProt P08637); experiment: ELISA: huCD16a-158F-HIS FcR probe binding to coated human IgG1; conditions: for enhancement of huCD16a-158F FcR binding to IgG1 antibody: ELISA, words
[3] = target: huCD16a-158V FcR (Homo sapiens, UniProt P08637, F176V); experiment: ELISA: huCD16a-158V-HIS FcR probe binding to coated human IgG1; conditions: words
[4] = target: T1, murine CD16a homolog 1 (FCGR3) (Mus musculus, UniProt P08508); experiment: ELISA: muFCGR3-HIS probe binding to human IgG1; conditions: words
T1 sequence (P08508 with tags, fused parts or gaps): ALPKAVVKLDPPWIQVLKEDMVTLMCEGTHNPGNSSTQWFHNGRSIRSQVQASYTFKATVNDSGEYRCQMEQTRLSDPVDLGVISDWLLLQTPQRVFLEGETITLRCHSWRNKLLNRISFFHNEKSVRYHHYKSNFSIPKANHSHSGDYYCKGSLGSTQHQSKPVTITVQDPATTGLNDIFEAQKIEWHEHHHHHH

Chain of huCD16a-158V FcR (P08637 17-206 F176V): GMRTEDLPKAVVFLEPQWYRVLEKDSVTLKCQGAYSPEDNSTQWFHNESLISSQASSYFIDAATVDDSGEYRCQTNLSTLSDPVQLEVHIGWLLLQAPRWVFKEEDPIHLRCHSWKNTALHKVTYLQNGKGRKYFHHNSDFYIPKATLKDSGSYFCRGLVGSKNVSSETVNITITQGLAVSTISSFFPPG

For “3-formyl cycloartenol 24-ketone [Compound 20]”, the “enhanced CD16a FcR-IgG antibody binding activity (SAR)” value [1] was “retains enhanced CD16a FcR-IgG antibody binding”.
For “3-β-hydroxy-4,4-dimethyl-5-a-bisnoralcohol [Compound 4]”, the “enhanced CD16a FcR-IgG antibody binding activity (SAR)” value [1] was “retained binding activity”.
CC(C)=CCC[C@@H](C)[C@H]1CC[C@@]2(C)C3=C(CC[C@]12C)[C@@]1(C)CC[C@H](O)C(C)(C)[C@@H]1CC3 [Compound 1, lanosta-8,24-dien-3β-ol] was tested, and the “enhancement of huCD16a-158F FcR binding to IgG1 antibody” value [2] was “significantly enhance” and the “enhancement of huCD16a-158V FcR binding to IgG1 antibody” value [3] was “significantly enhance”.
In the case of CC(C)=CCC[C@@H](C)[C@H]1CC[C@@]2(C)C3CC[C@H]4C(C)(C)[C@@H](O)CC[C@@]45C[C@@]35CC[C@]12C (stereo partly shown) [Compound 2], the “enhancement of muFCGR3-HIS binding to human IgG1” value [4] was “enhances binding”, the “enhancement of huCD16a-158F FcR binding to IgG1 antibody” value [2] was “significantly enhance” and the “improvement of CD16a-158F-IgG antibody binding over control Compound 5” value ([2]; titration ELISA, 2.5 μg/mL human IgG1 coat, 2.5 μg/mL huCD16a-158F-HIS) was 4.7 fold. For the same molecule, the “enhancement of huCD16a-158V FcR binding to IgG1 antibody” value [3] was “significantly enhance”.
For CC(C)=CCC[C@@H](C)[C@H]1CC[C@H]2C3=C(CC[C@]12C)[C@@]1(C)CC[C@H](O)C[C@@H]1CC3 [Compound 6, 5α-cholesta-8,24-dien-3β-ol], the “enhanced CD16a FcR-IgG antibody binding activity (SAR)” value [1] was “loss of activity”.
COc1cc(/C=C/C(=O)O[C@H]2CC[C@]34C[C@]35CC[C@]3(C)[C@@H]([C@H](C)CCC=C(C)C)CC[C@@]3(C)[C@@H]5CC[C@H]4C2(C)C)ccc1O [Compound 12, cycloartenol ferulate] was tested, and the “enhanced CD16a FcR-IgG antibody binding activity (SAR)” value [1] was “completely inactive”.

Reference: patent publication US20260256811A1, “Humoral Immune Activators for the Treatment of Humoral Immunosuppressed Pathologies, Cancer and Infectious Disease and Humoral Immune Suppressors for the Treatment of Inflammatory Diseases” (Navrogen, Inc., priority 2022, published 2026)
